Assay results as given in PubChem BioAssay AID1347055 (National Center for Advancing Translational Sciences (NCATS), 2019).
Screen size: about 54,000 compounds; about 120 (0.22%) were called active. Inconclusive results, whose numbers are uncertain, are shown with a selection of clear calls. The call rests on the fitted dose curve; in most records, active means well fitted inhibition curve with a large enough effect; inconclusive means small, poorly fitted or top-dose-only effect, or effect the other way; inactive means flat fitted curve, though single readings scatter. Potencies of inconclusive entries are left out as doubtful fits.

target: Fumarate hydratase, mitochondrial (Homo sapiens) (UniProt P07954); assay: Identification of activators of human fumarate hydratase by quantitative high-throughput screening; conditions: FH coupled MDH/diaphorase resazurin fluorescence, 15 min; activity change, negative = inhibition: at 79.9 µM (top of the series); further: the screen sought activators but most active calls are inhibition curves; nearly all actives have a fitted effect of over 45% in size
On the % scale 0 is the no-effect control and ±100 the full control effect; potency means the concentration at half of the fitted maximal effect; tags describe the fitted curve by direction and shape.

UniProt P07954, sequence (P07954 whole entry, looked up): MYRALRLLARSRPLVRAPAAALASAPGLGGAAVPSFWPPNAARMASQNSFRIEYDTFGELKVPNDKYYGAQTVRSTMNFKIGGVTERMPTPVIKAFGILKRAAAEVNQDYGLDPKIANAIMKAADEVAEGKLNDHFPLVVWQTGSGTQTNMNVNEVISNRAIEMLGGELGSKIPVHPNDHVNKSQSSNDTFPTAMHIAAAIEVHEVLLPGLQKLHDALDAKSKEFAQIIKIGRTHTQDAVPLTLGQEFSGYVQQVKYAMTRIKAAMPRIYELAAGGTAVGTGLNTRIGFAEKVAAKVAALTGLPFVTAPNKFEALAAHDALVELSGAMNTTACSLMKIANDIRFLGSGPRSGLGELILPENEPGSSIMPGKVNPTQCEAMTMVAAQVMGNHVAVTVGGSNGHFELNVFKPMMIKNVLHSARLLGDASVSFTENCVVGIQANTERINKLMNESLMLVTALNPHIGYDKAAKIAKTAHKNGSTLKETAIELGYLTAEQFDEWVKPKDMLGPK

Row | SMILES | Potency | activity change, negative = inhibition
1 | O=C(c1cc(O)c(O)c(O)c1)c1ccc(O)c(O)c1O | inconclusive [inhibitor, partial curve] | 
2 | CC(=O)c1ccc(NC(=O)CSc2ccc(-c3cccs3)nn2)cc1 |  | inactive: -20.6%
3 | CCOC(=O)C1CCN(C(c2cccc(F)c2)c2c(O)cc(C)n(Cc3ccco3)c2=O)CC1 (stereo not given) |  | inconclusive: -39.4% [inhibitor]
4 | Cc1ccc(CNS(=O)(=O)c2ccc3c(c2)CCN3S(C)(=O)=O)cc1 |  | inactive: -23.5%
5 | CC1OC(O[C@H]2CC[C@@]3(C)C(CC[C@]4(C)C3CC=C3C5CC(C)(C)CC[C@]5(C(=O)OC5OC(CO)C(OC6OC(COC7OCC(O)C(O)C7O)C(O)C(O)C6O)C(O)C5O)CC[C@]34C)C2(C)C)C(O)C(O)C1OC1OCC(OC2OCC(O)C(O)C2O)C(O)C1O (stereo not given in full) |  | inactive: 9.73% [at 13.5 µM]
6 | CCOc1ccc(NS(=O)(=O)c2ccc3[nH]c4c(c3c2)CCCC4)cc1 | inconclusive [inhibitor, single point] | 
7 | Cc1nc2nc(SCC(=O)NCCc3ccccc3)nn2c(C)c1Cc1c(F)cccc1Cl | inconclusive [inhibitor, single point] | 
8 | Cc1ccc(C(C)C)c(OCC(=O)N2CCC(c3nc4ccccc4o3)CC2)c1 | inconclusive [inhibitor, single point] | 
9 | O=C(Nc1c(C(=O)Nc2ccc(F)cc2)oc2ccccc12)c1ccccc1F | inconclusive [inhibitor, partial curve, poor fit] | 
10 | CCCS(=O)(=O)Nc1ccc(F)c(C(=O)c2c[nH]c3ncc(-c4ccc(Cl)cc4)cc23)c1F | inconclusive [inhibitor, single point] | 
11 | CCN(CC)S(=O)(=O)c1ccc2c(c1)c(=O)c(C(=O)NCc1ccccc1)cn2C |  | inactive: -3.82%
12 | CCNC(=O)Nc1ccc(Oc2ncnc(N)c2/C=N/OC)cc1Cl |  | inactive: 10.6%
13 | Cc1ccc(C)c(Cn2c(=O)n(CCCCC(=O)NCc3ccccc3Cl)c(=O)c3ccccc32)c1 | inconclusive [inhibitor, partial curve, poor fit] | 
14 | COc1cc(OC)c(C2Nc3c(C)cccc3-c3cc(C)nn32)cc1OC (stereo not given) | inconclusive [inhibitor, single point] | 
15 | O=C(Nc1ccc(Br)cc1F)N1CCC(CN2CCCC2)CC1 |  | inactive: -11.9%
16 | CCCCCCCCCCC/C=C\C(C)(C)/C=C\CCCC(=O)O | inconclusive [inhibitor, single point] | 
17 | COc1ccc(NC(=O)C(=O)NCC(c2cccnc2)N2CCc3ccccc32)cc1OC (stereo not given) | inconclusive [inhibitor, partial curve, poor fit] | 
18 | O=c1c2oc3ccccc3c2n(Cc2ccccc2Cl)c(=O)n1Cc1ccco1 |  | inactive: 2.46%
19 | Oc1c(C(c2ccc(Cl)cc2Cl)N2CCN(c3ccccc3)CC2)sc2nc(-c3ccco3)nn12 (stereo not given) | inconclusive [inhibitor, partial curve] | 
20 | COC(=O)C1=C(c2ccccc2)c2ccccc2S(=O)(=O)N1CC(=O)Nc1ccc(F)c(F)c1 | inconclusive [inhibitor, single point] | 

Row | SMILES | Potency | activity change, negative = inhibition
21 | CC(C(O)/C=C/C(C)(C)O)C1CCC2(C)C3C(=O)C=C4C(CCC(O)C4(C)C)C3(C)CCC12C (stereo not given) |  | inactive: 1.44% [at 53.3 µM]
22 | CC1CCC(C(=O)N(c2cc(C#CC(C)(C)C)sc2C(=O)O)C2CCC(O)CC2)CC1 (stereo not given) | inconclusive [activator, partial curve, poor fit] | 
23 | CCOC(=O)c1ccc(NC(=O)Cn2cc(C(=O)c3ccc(CC)cc3)c(=O)c3ccc(C)nc32)cc1 |  | inactive: -7.22%
24 | CCCCN(CC)CCCNC(=O)c1cn(CC)c2ccc(S(=O)(=O)N3CCc4ccccc4C3)cc2c1=O | inconclusive [inhibitor, partial curve, poor fit] | 
25 | CC(=O)OC1C(OC(=O)c2ccccc2)C2C(C)(C)CCC(OC(C)=O)C2(C)C23CCC(C)(C2)C(=O)CC13 (stereo not given) |  | inactive: -1.11% [at 53.3 µM]
26 | O=C(C1CC1)N1CCc2cc(Br)cc(S(=O)(=O)Nc3ccc(F)c(F)c3)c21 | active: 28.2 µM | 
27 | FC(F)(F)c1cc(Nc2nc3ccccc3c3nncn23)ccc1Cl | inconclusive [inhibitor, partial curve] | 
28 | O=C(Nc1ccc(N2CCN(c3ccc(F)cc3)CC2)c(C(=O)O)c1)c1cccs1 |  | inactive: -11.5%
29 | COc1ccc(OC)c(NC(=O)N2CC3CCCN3c3ccccc32)c1 (stereo not given) | inconclusive [inhibitor, single point] | 
30 | O=C(O)c1c(Cl)c(Cl)c(Cl)c(Cl)c1-c1c2cc(I)c(=O)c(I)c-2oc2c(I)c(O)c(I)cc12 | inconclusive [inhibitor, partial curve] | 
31 | COc1cccc(NC(=O)c2oc3ccc(S(=O)(=O)N4CCCCCC4)cc3c2C)c1 | inconclusive [inhibitor, single point] | 
32 | COc1cccc(NC(=O)C2CCN(S(=O)(=O)c3ccc4[nH]c5c(c4c3)CCCCC5)CC2)c1 | inconclusive [inhibitor, partial curve, poor fit] | 
33 | CC(=O)Nc1cccc(NC(=O)CSc2ccc(-c3sc(-c4ccccc4)nc3C)nn2)c1 | inconclusive [inhibitor, partial curve, poor fit] | 
34 | CCCN(C(=O)Nc1cn(CC(C)C)c(=O)c2ccccc12)c1ccc(F)cc1 | inconclusive [activator, single point] | 
35 | O=C(NCCc1ccc(Cl)cc1)c1ccc(CSCc2cccc(Cl)c2)o1 | inconclusive [inhibitor, partial curve, poor fit] | 
36 | COc1cccc(-c2nc(SCC(=O)Nc3ccc4c(c3)OCCO4)c(-c3ccc(C)cc3)[nH]2)c1 | inconclusive [inhibitor, single point] | 
37 | CS(=O)(=O)N(Cc1ccccc1)c1ccc(C(=O)Nc2ccc(Cl)cc2)cc1 | inconclusive [inhibitor, partial curve, poor fit] | 
38 | Cc1ccc(C)c(N2CCN(C(=O)C(CC(C)C)NS(=O)(=O)c3ccc4nc(C)sc4c3)CC2)c1 (stereo not given) | inconclusive [inhibitor, partial curve, poor fit] | 
39 | CCOC(=O)c1c(NC(=O)COc2cccc(C)c2C)sc2c1CCC(CC)C2 (stereo not given) | inconclusive [inhibitor, partial curve, poor fit] | 
40 | CC[C@@H](Nc1c(Nc2cccc(C(=O)N(C)C)c2O)c(=O)c1=O)c1ccc(C)o1 |  | inactive: -0.0744%

Row | SMILES | Potency | activity change, negative = inhibition
41 | CCCCN1C(=O)C(O)(CC(=O)c2ccc(C)cc2C)c2cc(Br)ccc21 (stereo not given) | inconclusive [inhibitor, partial curve, poor fit] | 
42 | CCCCNc1oc(-c2ccc(COc3ccc(OC)cc3)o2)nc1C#N |  | inactive: -3.83%
43 | CN(C)c1ccc(Nc2ncnc3sc4c(c23)CCCC4)cc1 | inconclusive [inhibitor, partial curve, poor fit] | 
44 | Cc1ccc2[nH]c(=O)c3cc(C(=O)NCCCN4CCC(C)CC4)sc3c2c1 | inconclusive [inhibitor, single point] | 
45 | Cc1ccc(-c2nnc(Nc3ccc(C(=O)N(C)C)cc3)c3ccccc23)cc1S(=O)(=O)N(C)C | inconclusive [inhibitor, single point] | 
46 | Cc1ccc(NC(=O)c2ccc3c(O)c(S(=O)(=O)c4ccccc4)c(=O)[nH]c3c2)cc1Cl | inconclusive [inhibitor, single point] | 
47 | C(#Cc1cccc(CN2CCOCC2)c1)CCN1CCCCC1 |  | inactive: -1.17%
48 | Cc1ccc(CNC(=O)c2ccc3nc(SCc4ccc(F)cc4)[nH]c3c2)cc1 | inconclusive [inhibitor, single point] | 
49 | CCOc1ccc(NS(=O)(=O)c2ccc3c4c(cccc24)C(=O)N3)cc1 | inconclusive [inhibitor, partial curve, poor fit] | 
50 | CC(C)(C)c1ccc(C(=O)Nc2onc3c2CCCC3)cc1 | inconclusive [inhibitor, partial curve] | 
51 | CCOC(=O)c1cccc(NC(=O)c2oc3c(c2C)-c2nn(CC)cc2CC3)c1 | inconclusive [inhibitor, partial curve, poor fit] | 
52 | COc1ccc(C(=O)CC2(O)C(=O)N(Cc3cccc(C(F)(F)F)c3)c3ccccc32)cc1 (stereo not given) | inconclusive [inhibitor, single point] | 
53 | COC(=O)c1ccc(NC(=O)CCCC(=O)OCC(=O)c2ccc(Cl)cc2)cc1 |  | inactive: -6.81%
54 | CC(C)CC(=O)c1c(O)cc2c(c1O)C(CC(C)C)C1=C(O2)C(C)(C)C(=O)C(C)(C)C1=O (stereo not given) | inconclusive [inhibitor, single point] | 
55 | COc1ccc(CCNC(=O)c2cccc(Nc3nc4ccccc4nc3-n3nc(C)cc3C)c2)cc1OC | inconclusive [inhibitor, partial curve, poor fit] | 
56 | CCOC(=O)c1cnn(-c2ccc(C(=O)Nc3ccc(C(C)=O)cc3)cc2)c1N | inconclusive [activator, partial curve] | 
57 | CC(C)c1nn2c(=O)cc(COC(=O)c3cccs3)nc2s1 |  | inactive: 6.91%
58 | O=C(c1ccc2c(c1)N(Cc1ccccc1)C(=O)c1ccccc1S2(=O)=O)N1CCc2ccccc21 |  | inactive: -9.93%
59 | COC(=O)c1ccc(NC(=O)CSc2nnc3c4ccccc4n(C(C)C)c3n2)cc1 | inconclusive [inhibitor, single point] | 
60 | CC(C)C(=O)Nc1nc2c(s1)CC(C(C)(C)C)CC2 (stereo not given) |  | inactive: -26%
